From PubChem BioAssay AID652104 (National Center for Advancing Translational Sciences (NCATS), 2013)
The campaign covered roughly 410,000 compounds. About 7,200 (1.8%) were called active. The shares of active, inactive and inconclusive entries below differ from those in the screen. The call rests on the fitted dose curve; in most records, active means well fitted activation curve with a large enough effect; inconclusive means small, poorly fitted or top-dose-only effect, or another doubt; inactive means no such curve, though single readings can be large or run the other way. Potencies of inconclusive entries are left out as doubtful fits. A structure can be active in one record and inactive in another.
Potency means the concentration at half of the fitted maximal effect; tags describe the fitted curve by direction and shape.

Test: qHTS of TDP-43 Inhibitors; further: nearly all actives have a fitted effect of over 50% in size
Details: TDP-43 expressing yeast growth rescue, BacTiter-Glo, 24 h; series mostly up to 46.1 µM
Summary of the method: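 Galactose-induced TDP-43 yeast, OD600=0.02, compound pinned; 24 hr, 30 deg C; BacTiter-Glo luminescence for growth. Inhibitors of TDP-43 toxicity read as activators.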
With `CCN(C(=O)CSc1nc2ccccc2n1Cc1ccc(F)cc1Cl)c1ccccc1` the Potency was “inactive”. In the case of `COc1ccc(CCNC(=O)c2c(C)oc3ncn(C)c(=O)c23)c(OC)c1`, the Potency is reported as inconclusive [activator, single point]. With `COc1cccc2c1OCC(C(=O)NCc1ccc(Cl)cc1Cl)=C2` the Potency was inconclusive [activator, partial curve]. In the case of `Cc1ccc(-n2cc(-c3ccc([N+](=O)[O-])cc3)[nH]c2=S)c(C)c1`, the Potency is reported as inconclusive [activator, partial curve]. In the case of `O=C1/C(=C/c2ccccc2)SC(=S)N1N1C(=O)C2CC2C1=O` (centres undefined), the Potency is reported as inconclusive [activator, full curve]. For `NC(=O)[C@H](Cc1cc2ccccc2s1)NC(=O)[C@@H]1CC2(CC(c3cccc(NC(=O)[C@@H]4CCC(=O)N4)c3)=NO2)CN1C(=O)/C=C/Sc1ccccc1` (some centres undefined), the Potency was “inactive”. In the case of `CCN(C(=O)CSc1nnc(-c2cccc(F)c2)n1N)c1c(N)n(Cc2ccccc2)c(=O)[nH]c1=O`, the Potency is reported as “inactive”. In the case of `COCCCNC(=S)N1CCCN(c2nc3cc(C)ccc3cc2C#N)CC1`, the Potency is reported as inconclusive [activator, single point]. For `CCOc1ccc(-n2c(CCc3ccccc3)n[nH]c2=S)cc1`, the Potency was inconclusive [activator, single point]. With `CSCCC(NS(=O)(=O)c1ccccc1F)C(=O)N1CCCCCCC1` (centres undefined) the Potency was “inactive”. For `Cc1ccc(-c2nn(-c3ccccc3Cl)cc2C(=O)NCC2CCCO2)cc1` (centres undefined), the Potency was inconclusive [activator, partial curve]. In the case of `CCCCS(=O)(=O)c1oc(-c2ccc(F)cc2)nc1S(=O)(=O)c1ccc(C)cc1`, the Potency is reported as inconclusive [activator, partial curve]. In the case of `Cc1oc(=O)cc(OCc2ccccc2)c1C`, the Potency is reported as inconclusive [activator, partial curve]. With `CC(C)(C)OC(=O)N1CCC(c2c(C(=O)NCCc3ccccc3)cnn2-c2ccc(F)cc2F)CC1` the Potency was inconclusive [activator, single point]. For `Cc1sc(-c2cc3c([nH]c2=O)CC(c2ccccc2)CC3=O)nc1-c1ccc(Cl)cc1` (centres undefined), the Potency was inconclusive [activator, partial curve, poor fit]. For `O=C(/C=C/C=C/c1ccccc1)CC1(O)C(=O)N(CCc2ccccc2)c2ccccc21` (centres undefined), the Potency was inconclusive [activator, partial curve]. With `COc1cccc(-c2cnc3c(NC=O)cc(-c4ccc(N(C)C)cc4)cn23)c1` the Potency was active: 20 µM. In the case of `O=C1CC(c2ccc(F)cc2)Sc2ccccc2N1` (centres undefined), the Potency is reported as inconclusive [activator, single point]. In the case of `Cc1c(C(=O)N2CCOCC2)oc2c1-c1nn(CC(=O)NCc3cccc(Cl)c3)cc1CC2`, the Potency is reported as “inactive”. In the case of `COc1cc2ccccc2cc1C(=O)N1CCc2ccccc21`, the Potency is reported as inconclusive [activator, single point]. For `CCCn1c(=O)c2c(nc3n2CCCN3Cc2ccccc2)n(C)c1=O`, the Potency was inconclusive [activator, partial curve]. In the case of `COc1ccccc1NC(=O)COc1ccc(-c2nn(C)c(=O)c3ccccc23)cc1`, the Potency is reported as active: 22.4 µM. In the case of `Oc1c(Cl)cc(Cl)cc1C(C#Cc1ccccc1)N1CCOCC1` (centres undefined), the Potency is reported as inconclusive [activator, single point]. With `CCCCN(Cc1cc2cc(OC)ccc2[nH]c1=O)C(=O)COc1ccccc1` the Potency was “inactive”. For `Cc1cccc(NS(=O)(=O)c2ccc3[nH]c4c(c3c2)CCCCCC4)c1`, the Potency was inconclusive [activator, single point]. With `COc1cccc2cc(-c3ccnc(N)n3)oc12` the Potency was inconclusive [activator, full curve]. In the case of `Clc1ccc2nc(-c3ccncc3)cc(-c3ccccc3)c2c1`, the Potency is reported as “inactive”. For `COC(=O)c1ccc(NC(=O)COC(=O)CCC2CCCC2)cc1`, the Potency was inconclusive [activator, partial curve]. With `CCOC(=O)c1ccc(NC(=S)NC2CCCC2)cc1` the Potency was inconclusive [activator, single point]. In the case of `CCc1cccc2c1NC(=O)C2(O)N1CCCC(C)C1` (centres undefined), the Potency is reported as inconclusive [activator, single point]. In the case of `COc1cc(CNc2ccc3[nH]c(=O)[nH]c3c2)ccc1OCc1ccc(Cl)cc1`, the Potency is reported as inconclusive [activator, partial curve, poor fit]. For `O=C(Nc1cccc(C(=O)N2CCN(c3cccc(Cl)c3)CC2)c1)c1ccccc1`, the Potency was inconclusive [activator, partial curve]. In the case of `Cc1ccc(N=Cc2ccc[nH]2)c(O)c1`, the Potency is reported as “inactive”. In the case of `COc1ccccc1N1CCN(C(=O)CSc2nnc(-c3ccoc3C)o2)CC1`, the Potency is reported as inconclusive [activator, single point]. For `CCOc1ccc(NC(=O)c2c[nH]n3c(=O)cc(C4CCN(C(=O)OC(C)(C)C)CC4)nc23)cc1`, the Potency was “inactive”. For `Cc1nn(-c2ccc(F)cc2)c(-n2cccc2)c1C(=O)NCCc1ccc(Cl)cc1`, the Potency was inconclusive [activator, single point]. In the case of `FC(F)(F)c1cc(-c2ccco2)nc(NCc2cccs2)n1`, the Potency is reported as active: 20 µM. For `CC(C)OCCCn1c(SCC(=O)c2ccccc2)nc2c(sc3ccccc32)c1=O`, the Potency was “inactive”. In the case of `O=C(NC1CCCCCC1)c1cc2c(=O)n3ccccc3nc2s1`, the Potency is reported as inconclusive [activator, partial curve]. With `Cc1ccc(N2C(=O)[C@@H]3Cc4ccccc4CN3C2=O)cc1` the Potency was inconclusive [activator, partial curve]. With `O=C(/C=C/c1cccc([N+](=O)[O-])c1)NCc1ccccc1` the Potency was “inactive”. In the case of `COc1ccc2sc(N(Cc3cccnc3)C(=O)C3CCCCC3)nc2c1`, the Potency is reported as inconclusive [activator, single point]. In the case of `CCCCC(=O)Nc1cc(N(C)C)nc2ccccc12`, the Potency is reported as “inactive”. In the case of `CCc1ccc(NC(=O)CN2C(=O)C(c3ccc(C)cc3)=NC23CCCCC3)cc1`, the Potency is reported as inconclusive [activator, full curve].
